According to the supplement of paper PMC8728848:
This is one part of the list.

What was measured:
Experiment in all cases: glycan array binding signal (z-score within array); higher = stronger binding
Details in all cases: glycan notation: IUPAC condensed, linker removed
[1] = molecular target: GlcNAc6S(b1-3)Gal(b1-4)GlcNAc
Procedure, shortened: (§1)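 Glycan array data were curated from 3228 arrays in the Consortium for Functional Glycomics database and kept only where the protein sequence was available. Glycan names were converted to IUPAC-condensed notation, and columns mapping to the same glycan were averaged. The binding signal is a within-array Z-score, averaged across arrays of the same protein sequence at different concentrations or buffers and across linkers. Negative Z-scores can be read as non-binding.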

Kdn(a2-3)Gal(b1-3)GalNAc = molecular target: Kdn(a2-3)Gal(b1-3)GalNAc
Procedure, shortened: as §1

Kdn(a2-3)Gal(b1-3)GlcNAc = molecular target: Kdn(a2-3)Gal(b1-3)GlcNAc
Procedure, shortened: as §1

Kdn(a2-3)Gal(b1-4)Glc = molecular target: Kdn(a2-3)Gal(b1-4)Glc
Procedure, shortened: as §1

Kdn(a2-3)Gal(b1-4)GlcNAc = molecular target: Kdn(a2-3)Gal(b1-4)GlcNAc
Procedure, shortened: as §1

[2] = molecular target: Kdn(a2-3)Gal(b1-4)[Fuc(a1-3)]GlcNAc
Procedure, shortened: as §1

Kdn(a2-6)Gal(b1-4)GlcNAc = molecular target: Kdn(a2-6)Gal(b1-4)GlcNAc
Procedure, shortened: as §1

[3] = molecular target: Man(a1-2)Man(a1-2)Man(a1-3)Man
Procedure, shortened: as §1

[4] = molecular target: Man(a1-2)Man(a1-2)Man(a1-6)[Man(a1-3)]Man
Procedure, shortened: as §1

Man(a1-2)Man(a1-3)Man = molecular target: Man(a1-2)Man(a1-3)Man
Procedure, shortened: as §1

[5] = molecular target: Man(a1-2)Man(a1-3)[Man(a1-2)Man(a1-6)]Man
Procedure, shortened: as §1

[6] = molecular target: Man(a1-2)Man(a1-3)[Man(a1-2)Man(a1-6)]Man(a1-6)[Man(a1-2)Man(a1-2)Man(a1-3)]Man
Procedure, shortened: as §1

[7] = molecular target: Man(a1-2)Man(a1-3)[Man(a1-2)Man(a1-6)]Man(a1-6)[Man(a1-2)Man(a1-2)Man(a1-3)]Man(b1-4)GlcNAc(b1-4)GlcNAc
Procedure, shortened: as §1

[8] = molecular target: Man(a1-2)Man(a1-3)[Man(a1-6)]Man(a1-6)[Man(a1-2)Man(a1-3)]Man(b1-4)GlcNAc(b1-4)GlcNAc
Procedure, shortened: as §1

[9] = molecular target: Man(a1-2)Man(a1-6)[Man(a1-3)]Man(a1-6)[Man(a1-2)Man(a1-2)Man(a1-3)]Man
Procedure, shortened: as §1

[10] = molecular target: Man(a1-2)Man(a1-6)[Man(a1-3)]Man(a1-6)[Man(a1-2)Man(a1-2)Man(a1-3)]Man(b1-4)GlcNAc(b1-4)GlcNAc
Procedure, shortened: as §1

Man(a1-3)[Man(a1-6)]Man = molecular target: Man(a1-3)[Man(a1-6)]Man
Procedure, shortened: as §1

[11] = molecular target: Man(a1-3)[Man(a1-6)]Man(a1-6)[Man(a1-2)Man(a1-3)]Man(b1-4)GlcNAc(b1-4)GlcNAc
Procedure, shortened: as §1

[12] = molecular target: Man(a1-3)[Man(a1-6)]Man(a1-6)[Man(a1-3)]Man
Procedure, shortened: as §1

[13] = molecular target: Man(a1-3)[Man(a1-6)]Man(a1-6)[Man(a1-3)]Man(b1-4)GlcNAc(b1-4)GlcNAc
Procedure, shortened: as §1

[14] = molecular target: Man(a1-3)[Man(a1-6)]Man(b1-4)GlcNAc(b1-4)GlcNAc
Procedure, shortened: as §1

Man(a1-6)Man = molecular target: Man(a1-6)Man
Procedure, shortened: as §1

Man(b1-4)GlcNAc = molecular target: Man(b1-4)GlcNAc
Procedure, shortened: as §1

Neu5Ac(a2-3)Gal = molecular target: Neu5Ac(a2-3)Gal
Procedure, shortened: as §1

[15] = molecular target: Neu5Ac(a2-3)Gal(b1-3)GalNAc
Procedure, shortened: as §1

[16] = molecular target: Neu5Ac(a2-3)Gal(b1-3)GalNAc(b1-3)Gal(a1-4)Gal(b1-4)Glc
Procedure, shortened: as §1

[17] = molecular target: Neu5Ac(a2-3)Gal(b1-3)GalNAc(b1-4)[Neu5Ac(a2-3)]Gal(b1-4)Glc
Procedure, shortened: as §1

[18] = molecular target: Neu5Ac(a2-3)Gal(b1-3)GalNAc6S
Procedure, shortened: as §1

[19] = molecular target: Neu5Ac(a2-3)Gal(b1-3)GlcNAc
Procedure, shortened: as §1

[20] = molecular target: Neu5Ac(a2-3)Gal(b1-3)GlcNAc(b1-2)Man(a1-3)[Neu5Ac(a2-3)Gal(b1-3)GlcNAc(b1-2)Man(a1-6)]Man(b1-4)GlcNAc(b1-4)GlcNAc
Procedure, shortened: as §1

[21] = molecular target: Neu5Ac(a2-3)Gal(b1-3)GlcNAc(b1-3)Gal(b1-3)GlcNAc
Procedure, shortened: as §1

[22] = molecular target: Neu5Ac(a2-3)Gal(b1-3)GlcNAc(b1-3)Gal(b1-4)GlcNAc
Procedure, shortened: as §1

[23] = molecular target: Neu5Ac(a2-3)Gal(b1-3)GlcNAc(b1-3)GalNAc
Procedure, shortened: as §1

[24] = molecular target: Neu5Ac(a2-3)Gal(b1-3)GlcNAc6S
Procedure, shortened: as §1

[25] = molecular target: Neu5Ac(a2-3)Gal(b1-3)[Fuc(a1-4)]GlcNAc
Procedure, shortened: as §1

[26] = molecular target: Neu5Ac(a2-3)Gal(b1-3)[Fuc(a1-4)]GlcNAc(b1-3)Gal(b1-3)[Fuc(a1-4)]GlcNAc
Procedure, shortened: as §1

[27] = molecular target: Neu5Ac(a2-3)Gal(b1-3)[Fuc(a1-4)]GlcNAc(b1-3)Gal(b1-4)[Fuc(a1-3)]GlcNAc
Procedure, shortened: as §1

[28] = molecular target: Neu5Ac(a2-3)Gal(b1-3)[Neu5Ac(a2-3)Gal(b1-4)]GlcNAc
Procedure, shortened: as §1

[29] = molecular target: Neu5Ac(a2-3)Gal(b1-3)[Neu5Ac(a2-6)]GalNAc
Procedure, shortened: as §1

Neu5Ac(a2-3)Gal(b1-4)Glc = molecular target: Neu5Ac(a2-3)Gal(b1-4)Glc
Procedure, shortened: as §1

[30] = molecular target: Neu5Ac(a2-3)Gal(b1-4)GlcNAc
Procedure, shortened: as §1

[31] = molecular target: Neu5Ac(a2-3)Gal(b1-4)GlcNAc(b1-2)Man(a1-3)[GlcNAc(b1-2)Man(b1-4)GlcNAc(b1-2)Man(a1-6)]Man(b1-4)GlcNAc(b1-4)GlcNAc
Procedure, shortened: as §1

[32] = molecular target: Neu5Ac(a2-3)Gal(b1-4)GlcNAc(b1-2)Man(a1-3)[Neu5Ac(a2-6)Gal(b1-4)GlcNAc(b1-2)Man(a1-6)]Man(b1-4)GlcNAc(b1-4)GlcNAc
Procedure, shortened: as §1

[33] = molecular target: Neu5Ac(a2-3)Gal(b1-4)GlcNAc(b1-3)Gal(b1-3)GlcNAc
Procedure, shortened: as §1

[34] = molecular target: Neu5Ac(a2-3)Gal(b1-4)GlcNAc(b1-3)Gal(b1-4)GlcNAc
Procedure, shortened: as §1

B1: GH98CBM51-1 (Streptococcus pneumoniae) (protein)
chain: MTYLSDMDWSSATHGDIDKTKTVQKDAPFTTGNKGEHTKISLLTSDDKVKYFDKGIGTVADSPSVISYDISGQGFEKFETYIGIDQSANSSRSDHAVVDRIEIEIDGKVVYSSSVTNPEGFRYNTQAQFISVTIPQNAKKISLKSFAGEHTWGDEVVFADAKLIKTVST
glycan array binding signal (z-score) [1]: -0.19 | glycan array binding signal (z-score) (Kdn(a2-3)Gal(b1-3)GalNAc): -0.192 | glycan array binding signal (z-score) (Kdn(a2-3)Gal(b1-3)GlcNAc): -0.182 | glycan array binding signal (z-score) (Kdn(a2-3)Gal(b1-4)Glc): -0.191 | glycan array binding signal (z-score) (Kdn(a2-3)Gal(b1-4)GlcNAc): -0.188 | glycan array binding signal (z-score) [2]: -0.187 | glycan array binding signal (z-score) (Kdn(a2-6)Gal(b1-4)GlcNAc): -0.192 | glycan array binding signal (z-score) [3]: -0.192 | glycan array binding signal (z-score) [4]: -0.189 | glycan array binding signal (z-score) (Man(a1-2)Man(a1-3)Man): -0.19 | glycan array binding signal (z-score) [5]: -0.186 | glycan array binding signal (z-score) [6]: -0.186 | glycan array binding signal (z-score) [7]: -0.187 | glycan array binding signal (z-score) [8]: -0.181 | glycan array binding signal (z-score) [9]: -0.193 | glycan array binding signal (z-score) [10]: -0.184 | glycan array binding signal (z-score) (Man(a1-3)[Man(a1-6)]Man): -0.193 | glycan array binding signal (z-score) [11]: -0.192 | glycan array binding signal (z-score) [12]: -0.19 | glycan array binding signal (z-score) [13]: -0.185 | glycan array binding signal (z-score) [14]: -0.188 | glycan array binding signal (z-score) (Man(a1-6)Man): -0.192 | glycan array binding signal (z-score) (Man(b1-4)GlcNAc): -0.145 | glycan array binding signal (z-score) (Neu5Ac(a2-3)Gal): -0.195 | glycan array binding signal (z-score) [15]: -0.19 | glycan array binding signal (z-score) [16]: -0.188 | glycan array binding signal (z-score) [17]: -0.19 | glycan array binding signal (z-score) [18]: -0.184 | glycan array binding signal (z-score) [19]: -0.194 | glycan array binding signal (z-score) [20]: -0.166 | glycan array binding signal (z-score) [21]: -0.193 | glycan array binding signal (z-score) [22]: -0.191 | glycan array binding signal (z-score) [23]: -0.183 | glycan array binding signal (z-score) [24]: -0.196 | glycan array binding signal (z-score) [25]: -0.188 | glycan array binding signal (z-score) [26]: -0.184 | glycan array binding signal (z-score) [27]: -0.183 | glycan array binding signal (z-score) [28]: -0.188 | glycan array binding signal (z-score) [29]: -0.189 | glycan array binding signal (z-score) (Neu5Ac(a2-3)Gal(b1-4)Glc): -0.188 | glycan array binding signal (z-score) [30]: -0.162 | glycan array binding signal (z-score) [31]: -0.191 | glycan array binding signal (z-score) [32]: -0.193 | glycan array binding signal (z-score) [33]: -0.197 | glycan array binding signal (z-score) [34]: -0.193
